B1: CPEB3 Ribozyme (parent)
chain: UAACAGGGGGCCACAGCAGAAGCGUUCACGUCGCAGCCCCUGUCAGAUUCUGGUGAAUCUGCGAAUUCUGCUGUAUAUCUC

The source gives no read counts; variants with many changes may rest on few reads.

The variants in the data set derive from B1. Nature of the data set: self-cleavage, relative activity (ratio to wild type); higher = more cleavage; in vitro, sequencing. The gist of the method: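 Barcoded CPEB3 ribozyme mutants, produced by rounds of error-prone PCR, self-cleaved while being transcribed with T7 RNA polymerase for 5 hours at 37°C and during a subsequent 15 min DNase I step before EDTA was added. Sequencing of template-switched cDNA on Illumina gave cleaved and total reads, and DNA sequencing assigned barcodes to variants. Each variant's relative activity is its cleaved/total read fraction divided by the unmutated ribozyme's fraction, averaged across three batches. A variant needed a minimum of 5 reads.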
As to A35C U69C U80C, the self-cleavage was determined as 0.23. Consider A35G U41C U54C C71A, for which the self-cleavage is 0.43. For A35G G36A U54C U67C the value was 0.1; for A35G U51C U54A U66C, 1.04.

For A35G A57C U80A, the self-cleavage worked out at 1.18. Then A35G U41C A45G, with 1.43; and A35G C40U U48C U58C U78C, with 0.32; and A35U G63A U66A, with 0.48. For A35G A45G U72C A75G the value was 1.27; for A35G A47G G55U A75U, 1.17; for A35G U43C U58C U72C, 0.6. As to A35U A45G U67C, the self-cleavage came to 0.49. Take A35U G55U A64G U67C A77U U80C: the self-cleavage stood at 0.08.

In the case of A35U A64C U80C, the self-cleavage worked out at 0.23. For A35U C39U U43C A56G C71G U78C C81U the value was 0.04. Then A35C U51C U54C C81U, with 0.84. Then A35U U41A U67C, with 0.13.

In the case of A35U C40A U66C U69G, the self-cleavage amounted to 0.12. In the case of A35G C39A A45C U60A U78C, the self-cleavage came to 0.43. Then A35G G63A A65U A75U, with 1.35. As to A35G U67C A75G, the self-cleavage is 0.82. Then A35U U41C U74C, with 0.99; and A35G U41A U80C, with 0.38; and A35G G55U A75G, with 1.3.

In the case of A35G G36U U41A U76C C79U, the self-cleavage was 0.18.

On to A35G U41C U43C U78C, for which the self-cleavage was determined as 0.99. For A35G U51A U54A U60G A64G the value was 0.94.

Take A35G U41C U43G A45G: the self-cleavage was 0.37. For A35G A45U A47G U80G the value was 0.85.

For A35G C44A G55C, the self-cleavage came to 0.8. In the case of A35U G46U U51C, the self-cleavage amounted to 0.13. Consider A35G U51G A65G, for which the self-cleavage was 1.27. As to A35G G53A U69A, the self-cleavage was found to be 1.24. With A35G C40U U48C U74A U80C, the self-cleavage worked out at 1.3. Turning to A35U A47G U49A U51C, the self-cleavage is 0.16.

For the variant A35U A47G U51C U60C, the self-cleavage came to 0.16. Then A35G U41C U67C, with 0.37. Then A35G U41A A47U G53A, with 0.34; and A35G U43A A57G A65G, with 1.19.

In the case of A35U C39A A47C A57G, the self-cleavage turned out to be 0.14.

Consider A35C U51A U60C U72C, for which the self-cleavage worked out at 0.18. Then A35U C39U U69A U72A, with 0.05; and A35G U72G A77C, with 1.22; and A35U A47G U67A U72C U80C, with 0.1. Then A35G U51A A77U U80A, with 1.32; and A35G U49C A64U, with 0.46. Then A35G U51A U60C A64G, with 1.06; and A35G U48A U49G U72C, with 0.63. Take A35C U67A A77U: the self-cleavage was found to be 0.43. Then A35G U58C U60C A64G, with 0.23. As for A35G U41C U60A, the self-cleavage is 1.08. Then A35G A47G U51A, with 1.17; and A35U A65G U74C, with 0.22; and A35G U41A U72G, with 0.43.

Consider A35G C44U U69C, for which the self-cleavage was 0.37. Take A35G C40U U41C: the self-cleavage amounted to 1.23. Consider A35U G46C A64G, for which the self-cleavage came to 0.14. Then A35G U48C U51C C71U, with 0.33; and A35G U54A A64G, with 1.36; and A35G U54A A65G, with 1.28. On to A35G U43G A47U U54A U72A U78C, for which the self-cleavage stood at 0.04. As for A35G C40U U41A A45U, the self-cleavage worked out at 0.41. On to A35G A65U U66C U67A U76A, for which the self-cleavage came to 0.66.

With A35G A45G U58C, the self-cleavage came to 0.93. Then A35U G53C U69A U80C, with 0.47; and A35G U41G A57G U76C A77G, with 0.2; and A35G C37U U49C U54C, with 1.15.

On to A35U U41C U43C U48C, for which the self-cleavage stood at 0.06.

A35G G46A A56U U78C: the self-cleavage is 0.25. Then A35U C37U A45G A47G U48C U49C A65G, with 0.08. For A35G G63U U78C the value was 1.28. For A35G U41C U54C the value was 1.36; for A35G U43C U58A U78C, 0.26; for A35U A56U U78C, 0.41. Turning to A35G U43C A64G, the self-cleavage came out at 1.19. Then A35G A57G U69A, with 1.14; and A35G U41C C59A, with 1. For A35G A65G U66C U78C the value was 0.47; for A35U A65U U69A, 0.1; for A35G G63U U67A U72C, 1.24.

On to A35G U41C C50G A65U U67C U80C, for which the self-cleavage came to 0.48.

As to A35G A45U U49C, the self-cleavage is 0.28. Take A35G A45G C62G: the self-cleavage turned out to be 0.33. As for A35G U41A U43C U69A, the self-cleavage was found to be 0.05. Turning to A35U A45G U69A, the self-cleavage stood at 0.13. For A35U G42A G53A the value was 0.45.

With A35G U41A A56U, the self-cleavage is 0.19.

For the variant A35G U49C U58A U67C, the self-cleavage was 0.11.

For A35G U60C U76A, the self-cleavage turned out to be 1.13. Then A35U C39U U51C, with 0.47; and A35G U43C A45G U69A, with 0.25; and A35G U41C G52A, with 1.28. Regarding A35G A45U G61A, the self-cleavage was found to be 1.13. Then A35U A64G U72C U74A U76C, with 0.28; and A35G A56G U58A A65G U69C U76A, with 0.9; and A35G U58A A65G C81U, with 0.92.

On to A35G U48C U49A, for which the self-cleavage is 0.9. For A35G U48C U49C, the self-cleavage turned out to be 0.34. As for A35G U58C A75G, the self-cleavage is 1.25. Consider A35U A47G U49C U51C U67C, for which the self-cleavage turned out to be 0.1. Then A35G U43C A47U, with 0.8. For A35G U69C U72A the value was 0.5.

Regarding A35G A65G G73U U76C U80C, the self-cleavage came to 1.32. Consider A35U A45U A47G, for which the self-cleavage is 0.12. Then A35G G63A U66A U72C, with 1.21; and A35G U58A A65U, with 0.57; and A35U A56U U60C U72G U76C, with 0.1.

Turning to A35U C40A A64G, the self-cleavage is 0.21. Consider A35U U41A U54A, for which the self-cleavage amounted to 0.18.

Turning to A35G U48C U49C G55U, the self-cleavage was determined as 0.74. A35G A47G U60G: the self-cleavage worked out at 0.89. For A35G U43C U66C U80C the value was 0.64.

A35G U66C A75U U78C: the self-cleavage turned out to be 1.28. For A35G A56U U58A the value was 0.83. Consider A35G U48C U80C, for which the self-cleavage worked out at 1.22. Then A35G G36C U54C U60C U66C U74C U78C, with 0.05; and A35G A56G U60A, with 1.12; and A35G U49C U54A A56G U60G, with 0.96. For the variant A35U A65U U80C, the self-cleavage was determined as 0.42. Then A35U A45C C81G, with 0.2; and A35U C38U A56G, with 0.19; and A35G U49C A64G U67C, with 0.46.

On to A35G A64U U66C, for which the self-cleavage came out at 0.54. For A35U A57G U60A C71A U74A the value was 0.07; for A35G U48C U72C A77G, 0.55; for A35U U41C U72C, 0.8. On to A35G U41C U43A U49C U60A A75U, for which the self-cleavage was found to be 0.24.

A35G U54C U66C: the self-cleavage amounted to 1.21.

As for A35G U43C U60A, the self-cleavage is 0.45. For A35G A47U U66C U76C the value was 1.1; for A35G U58C A77U U78A, 1.24; for A35G A64U U69C U72C, 0.67. Then A35U A45U U60C A65U U67C U80A, with 0.09; and A35U C38A U54C, with 0.14; and A35G A47G U78A U80C, with 1.21. A35G G70A C71U: the self-cleavage came out at 0.93. For A35U G42A U51C U54C the value was 0.13; for A35U A45G U48C U60A, 0.12.

As to A35G U60C A64C, the self-cleavage worked out at 0.38.

A35G C40A U69C U72A: the self-cleavage turned out to be 0.06.

As for A35G A45C U48C U58C, the self-cleavage was 0.12. For A35U A57G C68A U69C the value was 0.11; for A35G C39U U54C U66A U80C, 0.96; for A35G U41A U74C, 0.52. In the case of A35U U41A U43A, the self-cleavage is 0.16. In the case of A35G U43C A77G, the self-cleavage came to 1.3. Then A35U A56G U69C A77G U78C, with 0.09; and A35U A57G U69A, with 0.18; and A35U A65U U72A, with 0.1. Then A35G A47G U60A A65G, with 0.71; and A35U U41A A56C, with 0.34. As to A35G U54A U58C U67A, the self-cleavage was determined as 1.08. Regarding A35G U41C U43A U78A, the self-cleavage was found to be 1.22.

For A35U A47U U60C, the self-cleavage came out at 0.15.

Take A35G U41C A45U U58G U69A U72C U76C: the self-cleavage stood at 0.31. Regarding A35U C40U A64U A75U U78C, the self-cleavage is 0.05.

As for A35G U43G A45U U48A, the self-cleavage is 0.05.

With A35G A56G U66C U69C U78A, the self-cleavage was 0.77. For A35U C39A G46A the value was 0.11. Then A35U U41A U80C, with 0.15; and A35U U41A U80A, with 0.13; and A35G C37U U41C U54A, with 1.3. Then A35C U72A U74C, with 1.18. A35G U41A G52U U60C C68A: the self-cleavage came to 0.14. With A35G U51A U54C U66C, the self-cleavage came to 1.24. Then A35G A57G A65G A77U, with 1.08; and A35G U43A U49A A64G U69A, with 0.5.

For the origin of these results see the RNAGym collection of RNA variant scans (doi:10.1093/nar/gkz1192).
